Hit rate of the full screen: of about 52,000 compounds, about 1,700 (3.3%) were called active. Cut-off read from the data, not from the text of the source: active = survival mostly below about 52% (no sharp cut-off); inactive = mostly above about 56%. Some of the results follow.

For this test, the system named is Wild type. Nature of the test: growth inhibition of S. aureus wild type versus tarO mutant, primary screen, teichoic acid synthesis inhibitors, RN4220, OD600 (AID 463173). The following applies: S. aureus RN4220 wild type/DeltatarO growth, OD600, 18 h, active compounds read low, screened at 18.75 µg/mL (by protocol).
Consider `COC(=O)CNC(=O)C1CCN(c2nc(C)cc(-c3ccccc3)n2)CC1`, for which the survival is inactive: 106%.
With `Cc1ccc(NC(=O)C2CCCN2S(=O)(=O)c2cccc3nsnc23)c(Br)c1` (stereo not given) the figure was inactive: 89%; with `Cc1ccc2oc(=O)c3cc(C(=O)NCc4ccc(Cl)cc4)sc3c2c1`, inactive: 92%.
Under `Cc1cccc(-c2nc(C)c(CCNC(=O)C(=O)Nc3c(C)cc(C)cc3C)s2)c1` stands inactive: 71%.
Under `Cc1cc(SCC(=O)NCc2ccccc2Cl)nc(=O)[nH]1` stands inactive: 72%.
Consider `COc1ccc(CNC(=O)c2ccc(NC(=O)N3CCCCc4ccccc43)cc2)c(OC)c1`, for which the survival was inactive: 63%.
As for `Cc1ccc(-c2noc(CSc3nnc(C)n3-c3ccc(F)cc3)n2)cc1`, the survival was inactive: 92%.
With `Cc1cccc(C)c1NC(=O)CCS(=O)(=O)c1ccc2c(c1)n(C)c(=O)c(=O)n2C` the figure was inactive: 80%; with `COc1ccc(-c2csc3nc(-c4ccc(F)cc4)oc(=O)c23)cc1OC`, inactive: 73%; with `CCC(=O)N1CCc2cc(Br)cc(S(=O)(=O)CCC(=O)NCc3ccc(C)cc3)c21`, inactive: 79%.
Turning to `Cc1cc(O)c(C(c2ccccc2)N2CCN(c3ccccc3F)CC2)c(=O)n1Cc1ccco1` (stereo not given), the survival is inactive: 77%.
Under `COC(=O)c1sc(S(=O)(=O)N2CCN(c3ccc(OC)cc3)CC2)c(C(=O)OC)c1C` stands inactive: 127%.
Under `CCN(CC)S(=O)(=O)c1ccc(S(=O)(=O)N2CCN(C)CC2)cc1` stands inactive: 113%; under `COc1ccc(CNC(=O)C(=O)Nc2ccccc2OC)cc1`, inactive: 80%.
On to `C=CCNC(=O)CN1CCN(c2ccccc2)CC1`, for which the survival is inactive: 108%.
For the compound `CC1CC(C)CN(S(=O)(=O)c2ccccc2)C1` (stereo not given), the survival was inactive: 104%.
Under `COc1ccc(OC)c(NC(=O)CSc2nccn2-c2cc(C)cc(C)c2)c1` stands inactive: 84%; under `O=C(C1CC1)n1cc(C(=S)N2CCOCC2)c2ccccc21`, inactive: 100%; under `Cc1ccc(-c2nc3ccccc3[nH]2)cc1NC(=O)COc1ccc(Cl)cc1Cl`, inactive: 45%.
With `COc1cc(NC(=O)CN2C(=O)C(c3ccc(C)cc3)=NC23CCCCCC3)cc(OC)c1` the figure was inactive: 83%; with `CC(=O)Nc1c(C)nn(-c2ccccc2)c1N1CCC(C(=O)Nc2ccc(Cl)cc2C)CC1`, inactive: 129%; with `CCCC(=O)Nc1nc2c(s1)CC(C(C)(C)C)CC2` (stereo not given), inactive: 66%.
As for `COc1ccc(-n2c(=O)c3ccc(C(=O)NCc4ccc(C)cc4)cc3n(Cc3ccc(F)cc3Cl)c2=O)cc1`, the survival was inactive: 83%.
Turning to `CC1(C)N=C(c2ccc(F)cc2)C(=O)N1CC(=O)Nc1ccccc1Cl`, the survival is inactive: 92%.
Regarding `COc1ccc(N2CCN(C(=O)CCc3nnc4n(C)c(=O)c5sccc5n34)CC2)cc1`, the survival is inactive: 64%.

Source of the values: PubChem BioAssay AID463173 (ICCB-Longwood Screening Facility, Harvard Medical School, 2010).
